About 200 (0.44%) of roughly 45,000 compounds were called active. Inconclusive results (about 7%) are left out. Calls come from the whole dose curve; as a rule, active = well fitted activation curve with a large enough effect; inconclusive = small, poorly fitted or top-dose-only effect; inactive = no such curve, though single readings can be large or run the other way. Some of the results follow.
assay: qHTS of TDP-43 Inhibitors: NCGC Sytravon Library Screen; conditions: yeast TDP-43 toxicity rescue, BacTiter-Glo growth, 24 h; series mostly up to 46.1 µM; growth rescue (activation): at the top concentration; note: 0% is about no effect; nearly all actives have a fitted effect of over 55% in size
In short: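 TDP-43-expressing yeast, pregrown in raffinose, seeded at OD600 0.02 in galactose medium with compound for 24 hr at 30 deg C. Growth read by BacTiter-Glo luminescence, so rescue of toxicity appears as activation.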

| Compound | growth rescue (activation) |
| --- | --- |
| Cc1ccc(NCC(=O)N/N=C\c2ccc[nH]2)cc1 | inactive: 14.2% |
| CCc1sc(C(=O)NCCc2ccc(S(N)(=O)=O)cc2)cc1C | inactive: -25.5% |
| N#Cc1ccc(C(=O)NN2C(=O)NC3(CCCCC3)C2=O)cc1 | inactive: -2.28% |
| CC(=O)c1ccc(N2CCN(C(=O)CCNC(=O)Cn3ccc4ccccc4c3=O)CC2)cc1 | inactive: -1.96% |
| Cc1ccccc1C(=O)N1CCC(C(=O)OCc2ccccn2)CC1 | inactive: 11.9% |
| NC(c1ccccc1)c1csc(Nc2ccc(C(F)(F)F)cn2)n1 (stereo not drawn) | inactive: 27.8% |
| CN(CC(=O)Nc1ccc(S(=O)(=O)N2CCCC2)cc1)Cc1ccc(Cl)cc1Cl | inactive: -5.15% |
| CCOc1c(S(=O)(=O)NC2CC(C)(C)NC(C)(C)C2)ccc(Cl)c1Cl | inactive: 5.33% |
| CCC(Sc1nc2cc(OC)c(OC)cc2c(=O)n1Cc1ccc(OC)cc1)C(=O)NCCOC (stereo not drawn) | inactive: -3.1% |
| CCC1CCCCN1CCN1C(=O)C2C(C(=O)Nc3ccc(OC)cc3)C3C=CC2(O3)C1C(=O)NC1CCCCC1 (stereo not drawn) | inactive: -6.06% |
| CNc1cncc(-c2ccccc2CO)n1 | inactive: 11.3% |
| CC(C)Nc1ccc(Nc2ccnc3cc4ccccc4cc23)cc1 | inactive: 1.81% |
| NC(=O)COC(=O)c1ccc2c(c1)S(=O)(=O)c1ccccc1C2=O | inactive: -9.68% |
| COc1ccc(-n2c(=S)[nH]c3cc(C(=O)Nc4ccc(F)cc4)ccc3c2=O)c(OC)c1 | inactive: 2.9% |
| O=C(CCN1CCCCC1)Nc1ccccc1 | inactive: -6.75% |
| COc1ccc(S(=O)(=O)NCC2CCCN(C(=O)c3sccc3C)C2)cc1 (stereo not drawn) | inactive: 0.301% |
| O=C1CCCC(O)=C1N=Nc1cccc(S(=O)(=O)N2CCOCC2)c1 | inactive: 16.6% |
| CCN1CCN(C(=O)c2ccc3c(c2)N(Cc2ccccc2)C(=O)c2ccccc2S3(=O)=O)CC1 | inactive: 0.945% |
| O=C(CSc1nnc(NC(=O)c2c(F)cccc2F)s1)NC1CC1 | inactive: 15.2% |
| O=C(C[n+]1cc(-c2ccc(Br)cc2)n2c1CCCCC2)c1ccccc1 | inactive: -2.73% |
| Brc1cccc(OCCCN2CCCCCC2)c1 | inactive: -11.8% |
| Cn1nc(-c2ccc(C(=O)Nc3ccc(F)cc3)cc2)c2ccccc2c1=O | inactive: 23% |
| O=C(Nc1ccccn1)Nc1ccccc1[N+](=O)[O-] | inactive: 0.14% |
| Cn1cc([C@@H]2C[C@H]3CN(C4CCCC4)C(=O)[C@]34CCCN24)c(-c2ccccc2)n1 | inactive: -6.68% |
| COc1ccc2cc(C(=O)C3CCCN(Cc4ccccn4)C3)ccc2c1 (stereo not drawn) | inactive: 10.5% |
| Cc1cc(S(=O)(=O)NC(C)C)ccc1OCC(=O)Nc1ccc2c(c1)OCCO2 | inactive: 7.28% |
| CCOC(=O)C1=C(C)NC(C)=C(C(=O)OCC)C1C(=O)OCC(=O)NCc1ccccc1OC | inactive: 7.28% |

| Compound | growth rescue (activation) |
| --- | --- |
| O=C(Nc1ccc(NC(=O)C2CCCCC2)nc1)c1cccs1 | inactive: -10.9% |
| CCCS(=O)(=O)NC(=O)C1(C)CCCN(C(=O)c2ccc(F)c(Cl)c2)C1 (stereo not drawn) | inactive: 1.12% |
| O=C(CSc1n[nH]c(=O)[nH]c1=O)Nc1ccc(SC(F)F)cc1 | inactive: 8.22% |
| CS(=O)(=O)N1CCc2cc(C(=O)Nc3ccccc3Cl)ccc21 | inactive: 23.9% |
| Cc1ccc(S(=O)(=O)N(C)C)cc1NC(=O)C(C)N(C)CCOc1ccc(Cl)cc1 (stereo not drawn) | inactive: 9.04% |
| C[C@H](NC(N)=O)C(=O)N1CCN(S(=O)(=O)c2ccc3ccccc3c2)CC1 | inactive: 10.9% |
| CC(=O)c1ccc(S(=O)(=O)NCc2ccc(C(=O)N(C)CC(=O)Nc3cccc(F)c3)cc2)cc1 | inactive: -3.01% |
| Cn1nccc1C(=O)N1CCCC(C(=O)c2cccc3ccccc23)C1 (stereo not drawn) | inactive: -12% |
| CC(=O)N[C@H]1[C@H](OCc2ccccc2F)O[C@H](COC(C)=O)[C@@H](OC(C)=O)[C@@H]1OC(C)=O | inactive: 27.2% |
| CCc1nc2c(OCC(=O)N3CCOCC3)cccn2c1N(C)C(=O)COc1ccccc1 | inactive: 5.17% |
| CCN(c1ccc(NS(=O)(=O)c2cc(Cl)ccc2Cl)cc1)C(C)C | inactive: 5.4% |
| O=C(CCC(=O)Nc1ccccc1Cl)NNC(=O)c1ccco1 | inactive: 8.99% |
| O=C(NCc1ccco1)c1ccc(C(F)(F)F)cc1 | inactive: 1.9% |
| O=C(N/N=C/CCc1ccccc1)c1ccc(CN2c3cccc4cccc(c34)S2(=O)=O)cc1 | inactive: -4.14% |
| O=C(Nc1cccc(Cl)c1)c1cc([N+](=O)[O-])ccc1N1CCN(CCO)CC1 | inactive: 3.22% |
| O=C(COc1ccc(Br)cc1)Nc1ccc(CN2CCOCC2)cc1 | inactive: -2.12% |
| CCCn1c(SCC(=O)NCc2ccc(OC)cc2)n[nH]c1=O | inactive: 8.69% |
| CCN(CC)c1ccc2c(cc1=O)[C@@H](NC)CCc1cc(OC)c(OC)c(OC)c1-2 | inactive: -16.9% |
| CCc1ccccc1Nc1nc2ccccc2n1CC | inactive: 7.78% |
| CC1CN(S(=O)(=O)c2csc(C(=O)Nc3ccccc3)c2)CC(C)O1 (stereo not drawn) | inactive: 14.9% |
| CC(NC(=O)C12CC3CC(CC(O)(C3)C1)C2)c1ccc(Cl)cc1Cl (stereo not drawn) | inactive: 5.32% |
| CCC(NC(=O)Nc1ncccc1C)(C(F)(F)F)C(F)(F)F | inactive: 25.3% |
| S=C(NCc1ccc2c(c1)OCO2)NC1CCN(Cc2ccccc2)CC1 | inactive: 3.59% |
| CC(C)(C)c1cc(NC(=O)C2(C)CCN2C(=O)c2ccccc2CCc2ccccc2)no1 (stereo not drawn) | inactive: 17.4% |
| CCn1c(CC(=O)Nc2ccccc2)nnc1SCC(=O)Nc1nncs1 | inactive: 5.67% |
| COc1cc(C(=S)N2CCCCC2)ccc1OCC(=O)Nc1ccccc1Cl | inactive: -12.8% |
